The whole screen tested about 270,000 compounds, of which about 620 (0.23%) were called active. Inconclusive results, whose numbers are uncertain, are shown with a selection of clear calls. Calls follow the shape of the dose curve; as a rule, active = well fitted inhibition curve with a large enough effect in the polarisation, with a control signal flat (not every such curve was filed as active); inconclusive = small, poorly fitted or top-dose-only effect, or effect the other way, or a change in a side signal; inactive = no such curve, though single readings can be large or run the other way; the % refers to the polarisation. A potency beside an inconclusive call is a rough fit, not a confirmed value. “Side channel” marks fits to a control or component signal instead of the main read-out.
Each compound was assayed against Menin (Homo sapiens) (UniProt O00255) (assay: qHTS Assay for Inhibitors Targeting the Menin-MLL Interaction in MLL Related Leukemias: Competition With Texas Red Labeled MLL-derived Mutant Peptide). Settings: fluorescence polarization; FP activity change, negative = inhibition: at 61.6 µM (top of the series).
Sequence of UniProt O00255 (O00255 whole entry, looked up): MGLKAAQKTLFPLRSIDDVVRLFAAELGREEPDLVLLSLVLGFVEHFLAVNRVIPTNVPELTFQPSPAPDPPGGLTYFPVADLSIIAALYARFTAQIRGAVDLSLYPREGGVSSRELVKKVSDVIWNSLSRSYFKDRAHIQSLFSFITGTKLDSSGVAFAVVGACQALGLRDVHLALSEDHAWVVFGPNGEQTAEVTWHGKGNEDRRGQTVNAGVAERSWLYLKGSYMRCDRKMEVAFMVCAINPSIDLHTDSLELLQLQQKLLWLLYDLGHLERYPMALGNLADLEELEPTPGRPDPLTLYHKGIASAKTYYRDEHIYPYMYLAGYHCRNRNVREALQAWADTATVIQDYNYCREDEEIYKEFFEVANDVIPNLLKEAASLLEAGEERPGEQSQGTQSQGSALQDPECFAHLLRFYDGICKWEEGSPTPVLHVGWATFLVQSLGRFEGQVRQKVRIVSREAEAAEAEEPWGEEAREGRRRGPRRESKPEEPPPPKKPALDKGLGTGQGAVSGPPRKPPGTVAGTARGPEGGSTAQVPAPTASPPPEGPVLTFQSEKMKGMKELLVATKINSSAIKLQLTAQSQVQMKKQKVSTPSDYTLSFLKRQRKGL

For FP activity change, negative = inhibition in this document: % of control where 0% means no effect.
Potency is read from the fitted curve at half-maximal effect; tags tell the direction and shape of the fitted curve or compound fluorescence and quenching.

Potency, active:
N#Cc1sc2nc(-c3cccs3)cc(-c3ccc(Cl)cc3)c2c1N 25.1 µM

Potency, inconclusive:
N=c1c(C(=O)NC2CCCC2)cc2c(=O)n3ccccc3nc2n1CC1CCCO1 (centres undefined) 3.98 µM [inhibitor, single point]
Cc1sc2ncnc(Sc3ccccc3C(=O)Nc3ccc(C#N)cc3)c2c1C 3.98 µM [quencher, side channel, single point]
COc1ccc(Br)cc1/C=N/NC(=O)c1cccnc1 1 µM [quencher, side channel, full curve, poor fit]
CC(=O)Nc1sc(N/N=C\c2cccc(Cl)c2)nc1-c1cccs1 28.2 µM [quencher, side channel, partial curve]
CC1CN(Cc2c(O)ccc3c(=O)c(-c4ccccc4Cl)coc23)CC(C)O1 (centres undefined) 0.708 µM [inhibitor, full curve, poor fit]
CC(=O)Nc1ccc(NC(=O)C2CCN(S(=O)(=O)c3cccc4nonc34)CC2)cc1 12.6 µM [inhibitor, partial curve]
CCCCN(CC)CCNC(=O)c1cc2c(-c3ccccc3F)nn(C)c2s1 7.08 µM [inhibitor, partial curve]
CCOC(=O)c1cc(=O)n(Cc2ccccc2C)c2ccccc12 10 µM [fluorescent, side channel, partial curve]
CCOc1ccc(-c2nnc(N3CCOCC3)c3ccccc23)cc1 12.6 µM [fluorescent, side channel, partial curve]
Cc1nn(Cc2ccc(C(=O)N3c4ccc(F)cc4CCC3C)o2)c(C)c1Br (centres undefined) 3.55 µM [fluorescent, side channel, partial curve]
CN=C(Nc1ccccc1)SC1CC(=O)N(c2ccc(C(=O)OC)cc2)C1=O (centres undefined) 1.78 µM [quencher, side channel, full curve, poor fit]
COc1cccc(CNC(=O)C2CCN(c3nn4c(=O)cc(C)nc4s3)CC2)c1 2.82 µM [inhibitor, full curve]
CO[C@H]1C=CO[C@@]2(C)Oc3c(C)c(O)c4c(O)c(c(C=NN5CCN(C6CCCC6)CC5)c(O)c4c3C2=O)NC(=O)C(C)=CC=C[C@H](C)[C@H](O)[C@@H](C)[C@@H](O)[C@@H](C)[C@H](OC(C)=O)[C@@H]1C 7.08 µM [quencher, side channel, partial curve]
COc1ccc(CNC(=O)Nc2cccc3ccccc23)cc1 28.2 µM [inhibitor, single point]
O=C(c1cc(-c2ccc3c(c2)OCO3)on1)N1CCN(c2ccc(F)cc2)CC1 39.8 µM [inhibitor, single point]
Cc1ccc(-c2cccc(CN3CCN(C4CCN(C(C)C)CC4)C(CCO)C3)c2)o1 (centres undefined) 11.2 µM [inhibitor, partial curve]
CC(=O)NC1C(=O)N(CCN2CCOCC2)c2ccc(Br)cc21 (centres undefined) 22.4 µM [inhibitor, single point]
COc1ccccc1/C=C1/C(=O)N(c2ccc([N+](=O)[O-])cc2)N=C1C 15.8 µM [quencher, side channel, partial curve]
CCCCCCC(=O)N(O)C1CC(=O)N(c2ccc(Br)cc2)C1=O (centres undefined) 28.2 µM [quencher, side channel, single point]
Cc1ccc(/C=N/n2c(-c3cccs3)n[nH]c2=S)cc1 39.8 µM [quencher, side channel, single point]
CCN1C(=O)/C(=C\c2ccc(-c3cccc(C(=O)OC)c3)o2)SC1=Nc1ccc(C(=O)O)cc1 10 µM [quencher, side channel, partial curve]
CC(=O)Nc1cccc(NC(=O)CCn2c(=O)sc3ccccc32)c1 0.708 µM [inhibitor, full curve]
COc1cc(/C=N/NC(=O)c2ccc(N)cc2)ccc1OC(=O)c1cccc(C)c1 3.16 µM [quencher, side channel, full curve]
CCn1ncc(C2=NOC(C(=O)Nc3cnn(C45CC6CC(CC(C6)C4)C5)c3)C2)c1C (centres undefined) 0.891 µM [fluorescent, side channel, full curve]
O=C(Cn1c(=O)n(-c2ccc(F)cc2)c(=O)c2sccc21)NC1CCCCC1 39.8 µM [fluorescent, side channel, single point]
O=C(Nc1ccc2c(c1)OCO2)c1ccc(Cl)s1 31.6 µM [quencher, side channel, partial curve]
COc1ccccc1N(C(=O)c1snc(C(N)=O)c1N)C(C(=O)NC1CCCCC1)c1cccc(OC)c1OC (centres undefined) 7.94 µM [inhibitor, partial curve]
O=C(O)c1ccc(N/N=C/c2ccc(-c3ccc(Br)cc3)o2)cc1 25.1 µM [quencher, side channel, partial curve]
O=c1c(Cl)c(Cl)cnn1Cc1ccccc1Cl 10 µM [quencher, side channel, partial curve]
O=C(CCc1ccc(S(=O)(=O)N2CCOCC2)cc1)N1CCN(Cc2ccc3c(c2)OCO3)CC1 39.8 µM [fluorescent, side channel, single point]
Cc1cc(Cl)ccc1OCC(=O)Nc1nc(-c2cccs2)cs1 17.8 µM [quencher, side channel, single point]
COc1cc(/C=C2\CCC/C(=C\c3ccc(O)c(OC)c3)C2=O)ccc1O 12.6 µM [quencher, side channel, partial curve]
COc1ccc(/C=N/N(C)C2=NS(=O)(=O)c3ccccc32)cc1 3.16 µM [inhibitor, full curve]
Cc1ccc(/C=N/NC(=O)c2nnn(-c3nonc3N)c2CSc2ccccc2)o1 20 µM [quencher, side channel, partial curve]
Cc1cc(Cl)ccc1Oc1nccc(N(C)C)c1C#N 3.98 µM [inhibitor, single point]
CCOc1ccc(-c2nc(N)ncc2Oc2ccccc2Br)c(O)c1 12.6 µM [quencher, side channel, partial curve]
COc1ccc(C2=NN(C(=O)c3cccs3)C(c3ccccc3O)C2)cc1 (centres undefined) 39.8 µM [inhibitor, single point]
CCn1c(=O)n(CC)c2cc(S(=O)(=O)N3CCC(c4ccccc4)CC3)ccc21 10 µM [inhibitor, partial curve, poor fit]
CC(C(=O)NCC1CCCCC1)N1CCc2ccccc2C1 (centres undefined) 39.8 µM [fluorescent, side channel, single point]
Cc1ccc(-c2nc(CSCC(=O)NCCN3CCN(Cc4ccccc4)CC3)c(C)o2)cc1 10 µM [fluorescent, side channel, partial curve]
Cc1cc(N/N=C\c2ccccc2)nc(-c2ccccc2O)n1 8.91 µM [quencher, side channel, full curve]
C=CCn1cc(/C=N/Nc2nc3ccccc3[nH]2)c2ccccc21 25.1 µM [quencher, side channel, partial curve, poor fit]
COc1cc(Br)cc2cc(C(=O)NCC3CCCO3)c(=O)oc12 (centres undefined) 7.08 µM [inhibitor, single point]
Cc1cc(C)cc(NC(=O)Nc2ccc3c(c2)N(C)C(=O)CS3)c1 8.91 µM [quencher, side channel, partial curve]
CCCCc1ccc(NC(=O)C(=O)NCCN2CCN(C(=O)c3ccc([N+](=O)[O-])cc3)CC2)cc1 8.91 µM [quencher, side channel, single point]
Cc1ccccc1NC(=O)c1ccc2c(c1)C(=O)N(CC(C)C)C2=O 35.5 µM [inhibitor, single point]
Cc1cc(C)c2[nH]c(C(=O)Nc3ccc(F)cc3Br)cc2c1 10 µM [quencher, side channel, partial curve]
COc1ccc(/C=C2\SC(=S)N(CCC(=O)Nc3ccc(O)cc3)C2=O)cc1 3.55 µM [inhibitor, full curve]

FP activity change, negative = inhibition, inactive:
O=C(CSc1ccccc1C(=O)O)NCc1ccccc1 9.62%
CCC(C)c1ccc(NC(=O)NCCN2CCCCC2)cc1 (centres undefined) -5.15%
COCCCNC(=O)/C(C#N)=C/c1c(N2CCN(C)CC2)nc2c(C)cccn2c1=O 15.1%
CCOCCOC(=O)c1[nH]c2c(c1C)C(=O)CC(c1ccccc1)C2 (centres undefined) -3.97%
COc1ccc(-c2nn(-c3ccccc3)cc2CO)cc1OC -4.69%
N/C(=N\OC(=O)c1ccc(Cl)cc1)c1nonc1N 7.83%
O=C(CSc1nc2ccccc2o1)Nc1nncs1 -9.86%
CCCCOc1ccc(C(=O)N/C(=C/C=C/c2ccccc2)C(=O)NCCCO)cc1 -4.09%
Cc1c(Br)c([N+](=O)[O-])nn1CC(=O)Nc1ccc(CC#N)cc1 -3.45%
COc1ccc(NC(=O)C(=O)NNC(=O)c2cccs2)cc1 5.55%

From PubChem BioAssay AID1768 (National Center for Advancing Translational Sciences (NCATS), 2009)
